# Data as given in PubChem BioAssay AID504333 (National Center for Advancing Translational Sciences (NCATS), 2011).
# Several values for one entry are separate records, joined by “and”; a condition that tells them apart may be missing. Equal entries are not always repeated. The whole screen tested about 360,000 compounds, of which about 16,000 (4.4%) were called active. Inconclusive means that the source gave no clear call. Such entries were picked first, then a sample of the others. The call rests on the fitted dose curve; in most records, active means well fitted inhibition curve with a large enough effect; inconclusive means small, poorly fitted or top-dose-only effect; inactive means no such curve, though single readings can be large or run the other way. Potencies beside an inconclusive call are fits to weak or partial responses and may not hold up. Where a structure was tested more than once in an assay, its records may differ in their call.
# Target: Bromodomain adjacent to zinc finger domain protein 2B (Homo sapiens) (UniProt Q9UIF8)
# Chain of UniProt Q9UIF8 (Q9UIF8 whole entry, looked up, the tested form may be a part): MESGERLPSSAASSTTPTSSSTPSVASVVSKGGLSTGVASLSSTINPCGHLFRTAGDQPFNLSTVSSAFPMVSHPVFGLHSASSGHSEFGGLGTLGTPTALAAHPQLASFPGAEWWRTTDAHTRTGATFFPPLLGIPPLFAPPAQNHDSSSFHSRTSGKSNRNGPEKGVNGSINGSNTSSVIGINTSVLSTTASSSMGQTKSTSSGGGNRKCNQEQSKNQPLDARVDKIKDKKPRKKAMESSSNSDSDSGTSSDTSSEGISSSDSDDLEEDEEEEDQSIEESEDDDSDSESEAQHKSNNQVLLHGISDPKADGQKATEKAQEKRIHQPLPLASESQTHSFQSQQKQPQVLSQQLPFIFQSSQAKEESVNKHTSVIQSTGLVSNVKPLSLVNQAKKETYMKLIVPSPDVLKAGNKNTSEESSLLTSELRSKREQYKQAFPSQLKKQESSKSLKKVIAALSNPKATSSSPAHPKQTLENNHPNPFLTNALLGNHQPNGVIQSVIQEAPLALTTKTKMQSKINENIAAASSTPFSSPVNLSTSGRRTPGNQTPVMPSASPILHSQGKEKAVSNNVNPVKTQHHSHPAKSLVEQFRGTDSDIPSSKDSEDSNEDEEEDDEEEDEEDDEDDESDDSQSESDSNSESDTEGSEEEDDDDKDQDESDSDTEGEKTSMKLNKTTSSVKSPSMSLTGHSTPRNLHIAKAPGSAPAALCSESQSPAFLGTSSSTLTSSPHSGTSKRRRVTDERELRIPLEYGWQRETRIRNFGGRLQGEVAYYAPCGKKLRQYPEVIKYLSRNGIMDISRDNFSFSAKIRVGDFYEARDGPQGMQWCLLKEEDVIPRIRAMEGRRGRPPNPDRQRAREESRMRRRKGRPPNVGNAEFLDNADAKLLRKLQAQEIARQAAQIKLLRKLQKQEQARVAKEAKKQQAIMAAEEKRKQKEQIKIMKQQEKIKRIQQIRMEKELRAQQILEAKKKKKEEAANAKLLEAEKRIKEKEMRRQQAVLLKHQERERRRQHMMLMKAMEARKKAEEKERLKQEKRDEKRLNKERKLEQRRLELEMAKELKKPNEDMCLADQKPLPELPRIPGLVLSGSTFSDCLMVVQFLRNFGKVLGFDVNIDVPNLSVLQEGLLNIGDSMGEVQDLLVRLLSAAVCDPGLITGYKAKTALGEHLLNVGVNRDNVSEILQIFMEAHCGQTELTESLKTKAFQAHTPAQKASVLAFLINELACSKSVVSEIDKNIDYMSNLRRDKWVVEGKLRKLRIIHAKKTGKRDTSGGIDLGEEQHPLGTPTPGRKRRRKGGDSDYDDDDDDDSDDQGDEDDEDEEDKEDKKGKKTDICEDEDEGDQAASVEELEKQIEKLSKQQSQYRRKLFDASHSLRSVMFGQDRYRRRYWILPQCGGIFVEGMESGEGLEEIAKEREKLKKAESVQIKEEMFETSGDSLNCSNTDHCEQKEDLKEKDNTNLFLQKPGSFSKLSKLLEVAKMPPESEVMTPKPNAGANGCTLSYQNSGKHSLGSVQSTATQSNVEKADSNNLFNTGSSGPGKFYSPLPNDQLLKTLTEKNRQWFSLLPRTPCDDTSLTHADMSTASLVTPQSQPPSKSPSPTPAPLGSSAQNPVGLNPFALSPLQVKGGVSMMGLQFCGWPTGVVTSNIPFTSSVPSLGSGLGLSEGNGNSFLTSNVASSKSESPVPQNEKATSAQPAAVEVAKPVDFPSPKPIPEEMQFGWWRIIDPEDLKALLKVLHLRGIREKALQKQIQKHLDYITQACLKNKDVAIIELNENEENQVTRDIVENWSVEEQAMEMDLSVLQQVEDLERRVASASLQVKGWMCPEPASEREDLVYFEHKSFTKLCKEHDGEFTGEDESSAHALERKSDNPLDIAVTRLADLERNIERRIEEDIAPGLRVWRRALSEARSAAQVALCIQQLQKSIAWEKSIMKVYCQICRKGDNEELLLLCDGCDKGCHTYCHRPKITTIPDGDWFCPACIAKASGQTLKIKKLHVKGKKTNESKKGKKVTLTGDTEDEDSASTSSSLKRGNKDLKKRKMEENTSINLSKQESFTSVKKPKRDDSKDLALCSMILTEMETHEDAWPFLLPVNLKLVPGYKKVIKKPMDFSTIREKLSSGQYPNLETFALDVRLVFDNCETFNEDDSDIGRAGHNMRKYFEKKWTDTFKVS
# Assay: qHTS Assay for Inhibitors of BAZ2B; further: nearly all actives have a fitted effect of over 60% in size
# Conditions: AlphaScreen BAZ2B-H3K14Ac peptide displacement; activity change, negative = inhibition: at 114 µM (top of the series)
# Summary of the method: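 Compounds, titrated to a top concentration of 110 uM, were incubated 30 min at room temperature with preformed BAZ2B/acetyl-K14 H3 peptide complex (50 nM each). Proximity signal was measured by AlphaScreen after 20 min with beads.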
# On the % scale 0 is the no-effect control and ±100 the full control effect; potency means the concentration at half of the fitted maximal effect; tags describe the fitted curve by direction and shape.
Compound,Potency,"activity change, negative = inhibition"
CCc1ccc(CNC(=O)C2CCN(C(=O)c3ccc(-n4c(C)cc5ccccc54)s3)CC2)cc1,"inconclusive: 25.1 µM [inhibitor, full curve]",
Cc1cc([N+](=O)[O-])c(Cl)cc1NC(=O)C(C)C,,inactive: 7.04%
Cc1ccc(NC(=O)OC(C)CNC(=O)Oc2cccc(C)c2)cc1 (centres undefined),"inconclusive: 89.1 µM [inhibitor, single point]",
c1cc(CNCCc2ccc3c(c2)OCO3)ccn1,active: 56.2 µM,
COc1ccc(OCC(=O)N2CCN(C(C)C)CC2)cc1,active: 56.2 µM,
COc1ccc(O)c(CN2CCCC(C(=O)c3sccc3C)C2)c1 (centres undefined),"inconclusive: 50.1 µM [inhibitor, partial curve]",
COc1ccccc1CNCCc1ccc(F)cc1,active: 50.1 µM,
CCCCOP(=O)(c1ccc(N(C)C)cc1)C(Nc1ccccc1)c1ccccc1 (centres undefined),"inconclusive: 22.4 µM [inhibitor, full curve]",
COc1ccccc1-n1c(O)c(C=NCCCn2ccnc2)c(=O)[nH]c1=O,,inactive: -25.6%
CN(C)CCN(Cc1ccccc1)c1ccnc(N(C)C)c1C#N,"inconclusive: 89.1 µM [inhibitor, single point]",
COc1ccc(-c2cc(C(=O)N3CCN(c4ccccc4OC)CC3)c3cc(C(C)C)ccc3n2)cc1,"inconclusive: 25.1 µM [inhibitor, single point]",
O=C(NC[P+](=O)O)OCc1ccccc1,"inconclusive: 89.1 µM [inhibitor, single point]",
Cc1cccc(OCC(=O)Nc2ccc(C(=O)NCc3cccnc3)cc2)c1,"inconclusive: 89.1 µM [inhibitor, single point]",
Cn1c(O)c(/C=C2\N=c3ccccc3=C2CCNC(=S)NC2CC2)c(=O)n(C)c1=O,"inconclusive: 70.8 µM [inhibitor, partial curve]",
Cc1ccc(OCC(=O)Nc2ccc(Cl)cc2C(=O)c2ccccc2)cc1C,,inactive: 1.09%
CCN(CC)c1ccc(N=Cc2c(O)n(-c3ccccc3)c(=O)[nH]c2=O)cc1,"inconclusive: 12.6 µM [inhibitor, partial curve]",
CC[n+]1c(/C=C/C=C/c2ccc(N(C)C)cc2)sc2ccccc21,active: 35.5 µM,
CCNC(=S)NCCC1=c2ccccc2=N/C1=C\c1c(O)n(C)c(=O)n(C)c1=O,"inconclusive: 70.8 µM [inhibitor, single point]",
COc1cccc(CNCCc2ccc(F)cc2)c1,active: 39.8 µM,
O=[N+]([O-])c1ccc2nc(CCCc3nc4ccc([N+](=O)[O-])cc4[nH]3)[nH]c2c1,"inconclusive: 35.5 µM [inhibitor, partial curve, poor fit]",
Cc1cccc(NC(=O)COC(=O)c2cc(C)n(C3CC3)c2C)c1,"inconclusive: 89.1 µM [inhibitor, single point]",
COc1ccc(CC2C(=O)NC(=O)N(c3ccccc3)C2=O)c(OC)c1 (centres undefined),"inconclusive: 79.4 µM [inhibitor, single point]",
Cc1ccc(/C=C2\C(=O)NC(=S)N(c3ccc(F)cc3)C2=O)s1,active: 44.7 µM,

Compound,Potency,"activity change, negative = inhibition"
COc1ccc(/C=C2/C(=O)NC(=O)N(C3CCCCC3)C2=O)cc1CSc1ccccn1,"inconclusive: 39.8 µM [inhibitor, single point]",
Cc1cc(/C=C2\C(=O)NC(=O)N(c3ccccc3)C2=O)c(C)n1-c1ccc(C(=O)O)c(Cl)c1,"inconclusive: 89.1 µM [inhibitor, single point]",
CN1CCN(c2cc(N3CCCCCC3)c(F)cc2[N+](=O)[O-])CC1,"inconclusive: 50.1 µM [inhibitor, partial curve]",
COc1ccc2c3c([nH]c2c1)C(C)NCC3 (centres undefined),"inconclusive: 50.1 µM [inhibitor, partial curve]",
CN(C)c1ccc(P(=O)(Nc2ccc([N+](=O)[O-])cc2)N2CCOCC2)c(NC(=O)c2cccs2)c1 (centres undefined),"inconclusive: 44.7 µM [inhibitor, partial curve]",
CC(C)OC(=O)c1c(N)n(Cc2ccco2)c2nc3ccccc3nc12,,inactive: -12.4%
Cc1cccc(CN2CCN(c3ccc(Cl)cc3)CC2)c1,active: 50.1 µM,
C/C(=N\Nc1cccc2ccccc12)c1c(O)n(Cc2ccccc2)c(=O)[nH]c1=O,"inconclusive: 39.8 µM [inhibitor, full curve, poor fit]",
CN(C)c1ccc(NC(=O)Oc2ccccc2)cc1,active: 44.7 µM,
CN(C)c1ccc(CN2CC=C(c3ccc(F)cc3)CC2)cc1,active: 50.1 µM,
C=CCN1C(=O)NC(=O)/C(=C/c2ccc(OCC(=O)Nc3ccc(C)cc3)cc2)C1=O,active: 50.1 µM,
O=C(Nc1ccc(Oc2ccc(Cl)cc2)c(Cl)c1)c1cc(I)cc(I)c1O,"inconclusive: 35.5 µM [inhibitor, partial curve]",
Cc1c(O)c(=O)ccn1C,active: 39.8 µM and active: 44.7 µM,
Cc1ccccc1-n1c(/C=C/c2ccc(N(C)C)cc2)nc2ccccc2c1=O,active: 22.4 µM,
CN(C)CC/C=C1\c2ccccc2Sc2ccc(Cl)cc21,"inconclusive: 44.7 µM [inhibitor, partial curve]",
Cc1ccc2nc(SCC(=O)N/N=C/c3ccco3)cc(C)c2c1,"inconclusive: 22.4 µM [inhibitor, full curve, poor fit]",
COc1ccc(C=C2C(=O)N(C)C(=O)N(C)C2=O)cc1COc1ccc(NC(C)=O)cc1,"inconclusive: 79.4 µM [inhibitor, single point]",
COc1cc(N2CCOCC2)ccc1/C=C1\C(=O)NC(=O)N(C2CCCCC2)C1=O,,inactive: -36.6%
Cc1c(Cc2ccccc2)c(=O)oc2cc(OCc3ccc(C(=O)O)cc3)ccc12,"inconclusive: 79.4 µM [inhibitor, single point]",
O=C1OC(=O)c2c(Br)c(Br)c(Br)c(Br)c21,"inconclusive: 89.1 µM [inhibitor, single point]",
Cc1cc(C=C2C(=O)N(C)C(=S)N(C)C2=O)c(C)n1-c1cccnc1,active: 44.7 µM,
CCCCCCN=C(C)c1c(O)n(Cc2ccccc2)c(=O)[nH]c1=O,,inactive: 12%
c1ccc(-c2[nH]c[n+](CC3CO3)c2-c2ccccc2)cc1 (centres undefined),"inconclusive: 44.7 µM [inhibitor, partial curve]",

Compound,Potency,"activity change, negative = inhibition"
COc1ccc(OCC(=O)N2CCN(Cc3ccc(SC)cc3)CC2)cc1,active: 50.1 µM,
CCOC(=O)c1c(-n2c(C)cc(/C=C3\C(=O)NC(=O)N(C)C3=O)c2C)sc2c1CCCC2,"inconclusive: 79.4 µM [inhibitor, single point]",
N#Cc1c(/N=C/C2C(=O)NC(=S)NC2=O)sc2c1CCCC2,"inconclusive: 70.8 µM [inhibitor, partial curve]",
COc1ccc(CN2CCN(c3ccccc3F)CC2)c(OC)c1,active: 50.1 µM,
O=C(Cc1ccccc1)N1CCN(C2CCCCCC2)CC1,active: 50.1 µM,
CCN(CC)c1ccc(CN(C)CCc2ccc(OC)c(OC)c2)cc1,active: 44.7 µM,
O=S(=O)(c1ccc(Cl)cc1)c1ccc(Cl)cc1,"inconclusive: 89.1 µM [inhibitor, single point]",
CCCCn1c(O)c(C(CC)=Nc2ccc(OC)cc2OC)c(=O)[nH]c1=O,"inconclusive: 89.1 µM [inhibitor, single point]",
COc1ccc(-c2cc(=NCC(=O)O)c3ccccc3o2)cc1,"inconclusive: 89.1 µM [inhibitor, single point]",
c1cc(CCN2CCCC2)ccn1,"inconclusive: 89.1 µM [inhibitor, single point]",
Cc1nc2ccccc2c(=O)n1-c1ccc(Cl)cc1[N+](=O)[O-],"inconclusive: 79.4 µM [inhibitor, single point]",
Cc1cc(N2C(=O)C3CCCN3C2c2ccccc2)no1 (centres undefined),"inconclusive: 79.4 µM [inhibitor, single point]",
Cn1cc(/C=C(\C(=O)O)C(C(=O)O)=C2CCCCC2)c2ccccc21,"inconclusive: 79.4 µM [inhibitor, single point]",
CN1C(=O)C(=Cc2c(OCc3cnc(Cl)s3)ccc3ccccc23)C(=O)N(C)C1=O,"inconclusive: 44.7 µM [inhibitor, partial curve]",
COC(=O)C1=C(c2ccc(OCc3ccccc3)cc2)C[C@@H]2CC[C@H]1N2C(=O)NC1CCN(Cc2ccccc2)CC1,"inconclusive: 79.4 µM [inhibitor, single point]",
COc1ccccc1N1CCN(Cc2ccc(Br)cc2)CC1,"inconclusive: 79.4 µM [inhibitor, single point]",
O=c1[nH]c(=O)n(Cc2ccc(F)cc2)c(O)c1C=NCCN1CCCCC1,,inactive: -29.1%
O=C(O)CCn1cc(C=C2C(=O)NC(=S)NC2=O)c(-c2cccc(Cl)c2)n1,"inconclusive: 89.1 µM [inhibitor, single point]",
CCOC(=O)C1C(=O)N(C)C2(C)CC1c1cc(OC)ccc1O2 (centres undefined),"inconclusive: 89.1 µM [inhibitor, single point]",
Cc1cccc(-n2c(O)c(C)c(=O)[nH]c2=S)c1,"inconclusive: 70.8 µM [inhibitor, single point]",
CC1(C)CC(=O)C2=C(C1)OC(N)=C([N+](=O)[O-])C2c1ccc(C#N)s1 (centres undefined),"inconclusive: 79.4 µM [inhibitor, single point]",
CN1CCN(Cc2cc(C(C)(C)C)c(O)c(C(C)(C)C)c2)CC1,"inconclusive: 35.5 µM [inhibitor, single point]",
CC(C)c1c(CN(C)C(C)Cc2ccccc2)n(C)n(-c2ccccc2)c1=O (centres undefined),,inactive: 8.31%
